This note sets out measurements from US20240075157A1 (MAGENTA THERAPEUTICS, published 2024).

The target in experiment [1] is T1, hFcγR2A 167H (human, UniProt P12318 36-218, tagged with biotin or histidine (which one is not stated for this receptor)).
T1 sequence (looked up): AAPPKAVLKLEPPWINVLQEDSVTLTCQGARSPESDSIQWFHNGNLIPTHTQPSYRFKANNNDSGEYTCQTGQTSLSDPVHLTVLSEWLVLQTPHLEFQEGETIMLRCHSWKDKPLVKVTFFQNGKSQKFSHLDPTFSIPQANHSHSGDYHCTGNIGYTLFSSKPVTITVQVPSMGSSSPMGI
Description: BLI.

Experiment [2] concerns the target T2, hFcγR3A 176V (human, UniProt P08637 in part, tagged with biotin or histidine (which one is not stated for this receptor)). Nature of the experiment: BLI. In general terms: BLI is a label-free optical method that tracks binding on a fibre tip over time.
Experiment [3] concerns the target T3, hFcγR2B (human, UniProt P31994 46-217, tagged with biotin or histidine (which one is not stated for this receptor)).
T3 sequence (looked up): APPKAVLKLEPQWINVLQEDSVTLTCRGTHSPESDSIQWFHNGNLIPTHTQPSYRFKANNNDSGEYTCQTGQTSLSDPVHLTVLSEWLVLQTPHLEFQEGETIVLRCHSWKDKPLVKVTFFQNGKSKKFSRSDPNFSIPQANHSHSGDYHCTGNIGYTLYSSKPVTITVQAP
Description: BLI, Bio-hFcR2B.

Experiment [4] has as its target T4, cynomolgus FcγRI (cyno FcγR1) (cynomolgus, UniProt A0A2K5U901 33-309, Tagged with histidine ('His-cyno FcR1') for capture on the biosensor; the tag is not in the letters.).
T4 construct: Immobilised on streptavidin or anti-histidine biosensors at 10-25 nM; not shown: the histidine (or biotin) tag used to immobilise the receptor
T4 sequence (A0A2K5U901 entry or part of it limits assumed): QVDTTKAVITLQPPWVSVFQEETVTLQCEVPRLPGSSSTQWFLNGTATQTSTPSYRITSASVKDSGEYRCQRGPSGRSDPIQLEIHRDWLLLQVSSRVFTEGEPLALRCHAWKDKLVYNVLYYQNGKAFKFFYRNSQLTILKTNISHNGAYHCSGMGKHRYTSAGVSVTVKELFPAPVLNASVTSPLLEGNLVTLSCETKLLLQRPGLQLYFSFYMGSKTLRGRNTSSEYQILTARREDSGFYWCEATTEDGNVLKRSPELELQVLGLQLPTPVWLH
Description: BLI, His-cyno FcR1.

Experiment [5] deals with T2, hFcγR3A 176V. Nature of the experiment: BLI, Bio-hFcR3A 176V.
T2 sequence (P08637 17-208 F176V limits assumed): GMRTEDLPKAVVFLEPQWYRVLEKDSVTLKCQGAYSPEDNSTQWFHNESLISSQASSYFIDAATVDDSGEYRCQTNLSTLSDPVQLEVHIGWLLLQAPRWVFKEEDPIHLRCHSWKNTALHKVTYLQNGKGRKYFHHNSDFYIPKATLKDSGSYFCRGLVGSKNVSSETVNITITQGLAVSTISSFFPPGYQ
For experiment [6], the target named is T2, hFcγR3A 176V. Nature of the experiment: BLI, FcR3A 176V.

B1: Ab2 D265C N297Q (antibody, human IgG1, kappa, N297Q)
heavy: EVQLVQSGAEVKKPGESLKISCKGSGYSFTNYWIGWVRQMPGKGLEWMAIINPRDSDTRYRPSFQGQVTISADKSISTAYLQWSSLKASDTAMYYCARHGRGYEGYEGAFDIWGQGTLVTVSS[human IgG1 constant region with D265C N297Q (EU numbers) skipped]
light: DIQMTQSPSSLSASVGDRVTITCRSSQGIRSDLGWYQQKPGKAPKLLIYDASNLETGVPSRFSGSGSGTDFTLTISSLQPEDFATYYCQQANGFPLTFGGGTKVEIKRTVAAPSVFIFPPSDEQLKSGTASVVCLLNNFYPREAKVQWKVDNALQSGNSQESVTEQDSKDSTYSLSSTLTLSKADYEKHKVYACEVTHQGLSSPVTKSFNRGEC
notes: copies: 2 + 2
With B1, the binding result in experiment [1] and in experiment [2] was “no binding (tested: 300 nM)” each time. Also, the “Normalized Response” value in experiment [3] was 9 % of WT.

B2: Ab2 D265C.H435A (anti-CD117 antibody Ab85 with D265C and H435A) (antibody, human IgG1, kappa, name in EU numbering)
heavy: EVQLVQSGAEVKKPGESLKISCKGSGYSFTNYWIGWVRQMPGKGLEWMAIINPRDSDTRYRPSFQGQVTISADKSISTAYLQWSSLKASDTAMYYCARHGRGYEGYEGAFDIWGQGTLVTVSS[human IgG1 constant region with D265C H435A (EU numbers) skipped]
light: DIQMTQSPSSLSASVGDRVTITCRSSQGIRSDLGWYQQKPGKAPKLLIYDASNLETGVPSRFSGSGSGTDFTLTISSLQPEDFATYYCQQANGFPLTFGGGTKVEIKRTVAAPSVFIFPPSDEQLKSGTASVVCLLNNFYPREAKVQWKVDNALQSGNSQESVTEQDSKDSTYSLSSTLTLSKADYEKHKVYACEVTHQGLSSPVTKSFNRGEC
For B2, the binding result in experiment [2] is “no binding (tested: 300 nM)”. The “Normalized Response” value is 9 % of WT in experiment [3], 49 % of WT in experiment [4] and 1 % of WT in experiment [5].

B3: Ab2 D265C.LALA.H435A ADC2 (antibody)
heavy chain: EVQLVQSGAEVKKPGESLKISCKGSGYSFTNYWIGWVRQMPGKGLEWMAIINPRDSDTRYRPSFQGQVTISADKSISTAYLQWSSLKASDTAMYYCARHGRGYEGYEGAFDIWGQGTLVTVSSASTKGPSVFPLAPSSKSTSGGTAALGCLVKDYFPEPVTVSWNSGALTSGVHTFPAVLQSSGLYSLSSVVTVPSSSLGTQTYICNVNHKPSNTKVDKKV[human IgG1 Fc with L234A L235A D265C H435A (EU numbers) skipped]
light chain: DIQMTQSPSSLSASVGDRVTITCRSSQGIRSDLGWYQQKPGKAPKLLIYDASNLETGVPSRFSGSGSGTDFTLTISSLQPEDFATYYCQQANGFPLTFGGGTKVEIKRTVAAPSVFIFPPSDEQLKSGTASVVCLLNNFYPREAKVQWKVDNALQSGNSQESVTEQDSKDSTYSLSSTLTLSKADYEKHKVYACEVTHQGLSSPVTKSFNRGEC
In the case of B3, the binding result in experiment [6] was “no binding (tested: 600 nM)”.
